# Assay results taken from PubChem BioAssay (NCATS).
# Values joined by “and” are separate entries in the source; they are usually repeats but may differ in a detail not shown here. Equal entries are not always repeated. This list was built around the results that the source calls inconclusive (neither active nor inactive); the mix of calls is not that of the screen. Potencies of inconclusive entries are doubtful fits and often do not repeat. Active and inactive are the calls of the source. Calls follow the shape of the dose curve; as a rule, active = well fitted curve in the direction sought with a large enough effect; inconclusive = small, poorly fitted or top-dose-only effect, or another doubt; inactive = no such curve, though single readings can be large; an effect the other way counts as inactive or inconclusive.
# Legend:
# [1] = Viability qHTS for spleen associated tyrosine kinase inhibitor (SYKi) naive MV4-11 cells (AID 1963823); details: MV4-11 AML viability, CellTiter-Glo luminescence, 72 h; viability (% of control): at 45 µM (top of the series); also: nearly all actives have a fitted effect of over 40% in size
# Summary of the method: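 Compounds were dispensed acoustically onto plates, MV4-11 cells (SYKi-naive) added at 500 per well, and plates incubated 72 hr at 37 C. CellTiter-Glo was added and luminescence measured after 10 min.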
# [2] = Quantitative highthroughput screen to assess conditional lethalithy of NOMO1 cells grown in RPMI1640 with dialyzed fetal bovine serum (RPMI+ds) (AID 1963877); also: nearly all actives have a fitted effect of over 30% in size;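 as to Viability: 100% = DMSO control wells and 0% = empty wells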
# Summary of the method: (§1)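 Each medium arm—HPLM with 10% dialyzed FBS, or RPMI1640 with 5 mM glucose and 10% untreated or dialyzed FBS—was screened against an 11-point, 3-fold compound titration for 48 h at 37 °C, with CellTiter-Glo luminescence as endpoint.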
# [3] = Quantitative highthroughput screen to assess conditional lethalithy of NOMO1 cells grown in Human Plasma-Like Medium with dialyzed fetal bovine serum (HPLM+ds) (AID 1963878); details: NOMO1 AML cells in HPLM+ds, CellTiter-Glo viability, 48 h; viability: at 45.8 µM (top of the series); also: nearly all actives have a fitted effect of over 35% in size;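 as to Viability: 100% = DMSO wells and 0% = empty wells on each plate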
# Summary of the method: as §1
# [4] = Quantitative highthroughput screen to assess conditional lethalithy of P12 Ichikawa cells grown in RPMI1640 with dialyzed fetal bovine serum (RPMI+ds) (AID 1963880); details: Potency: P12-Ichikawa viability; also: nearly all actives have a fitted effect of over 35% in size;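 as to Viability: 100% = DMSO wells and 0% = empty wells on each plate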
# Summary of the method: as §1
# [5] = Quantitative highthroughput screen to assess conditional lethalithy of SEM cells grown in RPMI1640 with unreated serum (RPMI+s) (AID 1963883); details: SEM B-ALL cells, CellTiter-Glo viability, 48 h; viability: at 45.8 µM (top of the series); also: nearly all actives have a fitted effect of over 35% in size;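 as to Viability: 100% = DMSO wells and 0% = empty wells without cells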
# Summary of the method: as §1
# [6] = Quantitative highthroughput screen to assess conditional lethalithy of P12 Ichikawa cells grown in Human Plasma-Like Medium with dialyzed fetal bovine serum (HPLM+ds) (AID 1963879); details: Potency: viability; also: nearly all actives have a fitted effect of over 35% in size
# Summary of the method: as §1
# [7] = Quantitative highthroughput screen to assess conditional lethalithy of P12 Ichikawa cells grown in RPMI1640 with untreated serum (RPMI+s) (AID 1963881); details: Potency: viability; also: nearly all actives have a fitted effect of over 35% in size;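 as to Viability: 100% = DMSO wells and 0% = empty wells without cells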
# Summary of the method: as §1
# [8] = Quantitative highthroughput screen to assess conditional lethalithy of SEM cells grown in Human Plasma-Like Medium with dialyzed fetal bovine serum (HPLM+ds) (AID 1963882); also: nearly all actives have a fitted effect of over 35% in size
# Summary of the method: as §1
# [9] = Quantitative highthroughput screen to assess conditional lethalithy of SEM cells grown in RPMI1640 with dialyzed fetal bovine serum (RPMI+ds) (AID 1963884); details: SEM B-ALL cells, RPMI+dialyzed FBS, CellTiter-Glo viability, 48 h; viability: at 45.8 µM (top of the series); also: nearly all actives have a fitted effect of over 35% in size;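 as to Viability: 100% = DMSO control wells and 0% = empty wells without cells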
# Summary of the method: as §1
# [10] = Cellular viability qHTS for adrenocortical cancer (ACC) cell line SW-13 (AID 1963989); details: SW-13 ACC cells viability, CellTiter-Glo, 48 h; activity (max response): stronger effect = lower value; also: nearly all actives have a fitted effect of over 65% in size;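 as to activity (max response): cells grown in serum-free medium with ITS supplement; % is scaled to controls: 0 for no effect and ±100 for the full control effect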
# Summary of the method: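 SW-13 cells in ITS-supplemented serum-free DMEM were plated overnight, then exposed for 48 h at 37C to compound titrations (up to 46 uM final). Viability was read by CellTiter-Glo luminescence; four-parameter logistic fits gave IC50 and efficacy.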
# [11] = Cellular viability qHTS for adrenocortical cancer (ACC) cell line NCI-H295R (AID 1963990); details: CellTiter-Glo ATP luminescence, 48 h; activity change, negative = viability loss: at 46.1 µM (top of the series); also: nearly all actives have a fitted effect of over 60% in size;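 as to activity change, negative = viability loss: 0% = DMSO only wells and -100% = full killing with cytotoxic reference compound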
# Summary of the method: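 Luminescent ATP read-out (CellTiter-Glo, 20 min RT) after 48 h drug exposure of NCI-H295R cells; a titration up to 46 uM final. Data normalized to doxorubicin (100% inhibition) and DMSO (0%); 4-parameter fit gives IC50, max response.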
# Potency is read from the fitted curve at half-maximal effect; tags tell the direction and shape of the fitted curve.
smiles,measurement,setting,value
COC[C@H](NC(=O)c1cnc(C)s1)C(=O)N[C@@H](COC)C(=O)N[C@@H](Cc1ccccc1)C(=O)[C@@]1(C)CO1,Potency,[1],active: 0.0661 µM
same,Potency,[2],active: 0.469 µM
same,Potency,[3],active: 0.332 µM
same,Potency,[4],active: 0.235 µM
Cc1noc(-c2ccc(CSCCC(=O)O)cc2)c1NC(=O)OC(C)c1ccccc1Cl (configuration not stated),Potency,[1],inactive
same,Potency,[2],inactive
same,Potency,[3],inactive
same,Potency,[5],inactive
CCCCC[C@H](O)C=C[C@H]1[C@H](O)CC(=O)[C@H]1CC=CCCCC(=O)O,Potency,[1],active: 0.119 µM
same,Potency,[2],"inconclusive: 23.5 µM [cytotoxic, partial curve]"
same,Potency,[6],"inconclusive: 33.2 µM [cytotoxic, single point]"
same,Potency,[4],"inconclusive: 37.2 µM [cytotoxic, single point]"
same,Potency,[7],"inconclusive: 26.4 µM [cytotoxic, single point]"
same,Potency,[8],"inconclusive: 23.5 µM [cytotoxic, partial curve, poor fit]"
same,Potency,[5],"inconclusive: 37.2 µM [cytotoxic, single point]"
same,Potency,[9],"inconclusive: 37.2 µM [cytotoxic, single point]"
same,Potency,[10],"inconclusive: 18.4 µM [cytotoxic, partial curve, poor fit]"
same,Potency,[11],"inconclusive: 31.6 µM [cytotoxic, partial curve, poor fit]"
NC(=O)c1ccc(-c2nc(-c3ccc4c(c3)OCO4)c(-c3ccccn3)[nH]2)cc1,Potency,[1],"inconclusive: 10.5 µM [cytotoxic, full curve, poor fit]"
same,Potency,[2],inactive
same,Potency,[3],inactive
same,Potency,[7],inactive
same,Potency,[8],inactive
same,Potency,[5],inactive
same,Potency,[9],inactive
same,Potency,[11],inactive
COc1ccc(-c2cc(=O)c3c(O)cc(O)cc3o2)cc1O,Potency,[1],"inconclusive: 4.68 µM [cytotoxic, full curve]"
same,Potency,[2],inactive
same,Potency,[3],inactive
same,Potency,[6],inactive
same,Potency,[8],"inconclusive: 6.62 µM [cytotoxic, full curve, poor fit]"
same,Potency,[5],"inconclusive: 18.7 µM [cytotoxic, partial curve, poor fit]"
same,Potency,[9],"inconclusive: 18.7 µM [cytotoxic, partial curve, poor fit]"
same,Potency,[11],inactive
NC(CO)(CO)CCc1ccc(Sc2cccc(OCc3ccccc3)c2)cc1Cl,Potency,[1],active: 7.42 µM
same,Potency,[2],"inconclusive: 33.2 µM [cytotoxic, single point]"
same,Potency,[3],active: 7.43 µM
same,Potency,[7],active: 10.5 µM
same,Potency,[8],"inconclusive: 0.296 µM [cytotoxic, full curve, poor fit]"
same,Potency,[5],"inconclusive: 0.296 µM [cytotoxic, full curve, poor fit]"
same,Potency,[9],"inconclusive: 0.332 µM [cytotoxic, full curve, poor fit]"
same,Potency,[10],"inconclusive: 31.6 µM [cytotoxic, single point]"
CN[C@@H](C)[C@H]1[C@H](O)C[C@@]2(C)[C@@H]3CC[C@H]4C(C)(C)[C@@H](NC)CC[C@@]45C[C@@]35CC[C@]12C,viability (% of control),[1],inactive: 79.2% [at 9.25 µM]
same,Potency,[2],inactive
same,Potency,[3],inactive
same,Potency,[4],inactive
same,Potency,[8],"inconclusive: 2.96 µM [cytotoxic, partial curve, poor fit]"
same,"activity change, negative = viability loss",[11],inactive: -14.8% [at 9.17 µM]
Cc1ccc(C(C)(O)c2nc3ccccc3s2)c(C)c1 (configuration not stated),Potency,[1],"inconclusive: 16.6 µM [cytotoxic, partial curve]"
same,Potency,[2],"inconclusive: 23.5 µM [cytotoxic, single point]"
same,Potency,[3],"inconclusive: 10.5 µM [cytotoxic, partial curve]"
same,Potency,[7],active: 14.8 µM
same,Potency,[8],"inconclusive: 5.9 µM [cytotoxic, full curve, poor fit]"
same,Potency,[5],"inconclusive: 6.62 µM [cytotoxic, full curve, poor fit]"
same,Potency,[9],"inconclusive: 7.43 µM [cytotoxic, full curve, poor fit]"
same,Potency,[10],"inconclusive: 35.5 µM [cytotoxic, single point]"
same,Potency,[11],"inconclusive: 35.5 µM [cytotoxic, single point]"
O=C1c2c(O)cc(O)cc2OC(c2ccc(O)c(O)c2)C1O (configuration not stated),Potency,[1],inactive
same,Potency,[2],inactive
same,Potency,[3],inactive
same,Potency,[8],inactive
same,Potency,[9],inactive
same,Potency,[11],inactive
NC(=O)[C@@H](CCC(F)(F)F)N(Cc1ccc(-c2ncon2)cc1F)S(=O)(=O)c1ccc(Cl)cc1,Potency,[1],active: 20.9 µM
same,Potency,[2],"inconclusive: 26.4 µM [cytotoxic, single point]"
same,Potency,[3],active: 20.9 µM
same,Potency,[6],"inconclusive: 26.4 µM [cytotoxic, single point]"
same,Potency,[7],"inconclusive: 23.5 µM [cytotoxic, single point]"
same,Potency,[5],active: 16.6 µM
same,Potency,[11],"inconclusive: 35.5 µM [cytotoxic, single point]"
Fc1cc(-c2cccc3ncc(-c4cnn(C5CCNCC5)c4)nc23)cc(F)c1CN1CCOCC1,Potency,[1],active: 259 nM and active: 372 nM
same,Potency,[2],"inconclusive: 14.8 µM [cytotoxic, partial curve]"
same,Potency,[3],active: 3.32 µM
same,Potency,[6],"inconclusive: 8.33 µM [cytotoxic, partial curve]"
same,Potency,[4],active: 16.6 µM
same,Potency,[8],active: 4.69 µM
same,Potency,[9],"inconclusive: 2.96 µM [cytotoxic, full curve]"
CN1C(C(=O)Nc2ccccn2)=C(O)c2sc(Cl)cc2S1(=O)=O,Potency,[1],inactive
same,Potency,[2],inactive
same,Potency,[3],inactive
same,Potency,[4],inactive
same,Potency,[7],inactive
same,activity (max response),[10],inactive: -21.7%
CN1C(=O)c2sccc2N(C)c2nc(Nc3ccc(S(N)(=O)=O)cc3)ncc21,Potency,[1],"inconclusive: 0.742 µM [cytotoxic, full curve]"
same,Potency,[2],active: 13.2 µM
same,Potency,[3],active: 9.33 µM
same,Potency,[8],active: 2.63 µM
same,Potency,[5],active: 2.34 µM
same,Potency,[9],active: 2.34 µM
same,Potency,[11],"inconclusive: 22.4 µM [cytotoxic, partial curve]"
C=CCn1c(=O)c2cnc(Nc3ccc(N4CCN(C)CC4)cc3)nc2n1-c1cccc(C(C)(C)O)n1,Potency,[1],"inconclusive: 411 nM [cytotoxic, full curve] and active: 525 nM"
same,Potency,[2],active: 0.418 µM
same,Potency,[3],"inconclusive: 0.296 µM [cytotoxic, full curve]"
same,Potency,[6],active: 1.05 µM
same,Potency,[7],active: 2.64 µM
same,Potency,[9],active: 0.148 µM
same,Potency,[10],active: 3.55 µM
same,Potency,[11],active: 1 µM
COc1cc2nc(N3CCN(C(=O)C4CCCO4)CC3)nc(N)c2cc1OC (configuration not stated),Potency,[1],inactive
same,Potency,[2],inactive
same,Potency,[3],inactive
same,Potency,[5],inactive
same,Potency,[9],"inconclusive: 0.0066 µM [rising, full curve, poor fit]"
same,activity (max response),[10],inactive: -21%
same,Potency,[11],"inconclusive: 20.6 µM [cytotoxic, partial curve, poor fit]"
O=C(Nc1cccnc1)N1CCC(Cc2cccc(Oc3ccc(C(F)(F)F)cn3)c2)CC1,Potency,[1],active: 3.66 µM and active: 4.17 µM
same,Potency,[2],"inconclusive: 9.35 µM [cytotoxic, full curve]"
same,Potency,[3],active: 8.33 µM
same,Potency,[6],active: 8.33 µM
same,Potency,[8],"inconclusive: 4.18 µM [cytotoxic, full curve, poor fit]"
same,Potency,[9],"inconclusive: 2.96 µM [cytotoxic, full curve, poor fit]"
O=C(Nc1ccc([N+](=O)[O-])cc1Cl)c1cc(Cl)ccc1O,Potency,[1],active: 920 nM and active: 934 nM
same,Potency,[2],"inconclusive: 1.18 µM [cytotoxic, full curve]"
same,Potency,[3],"inconclusive: 1.48 µM [cytotoxic, full curve]"
same,Potency,[7],active: 2.35 µM
same,Potency,[8],"inconclusive: 1.32 µM [cytotoxic, full curve]"
same,Potency,[9],"inconclusive: 1.05 µM [cytotoxic, full curve, poor fit]"
same,Potency,[10],active: 142 nM and active: 447 nM
Cc1cnc(-c2cc(N3CCN(C(=O)CCS(C)(=O)=O)CC3)ncc2Cl)c(C)c1,Potency,[1],"inconclusive: 8.2 µM [cytotoxic, partial curve, poor fit] and inactive"
same,Potency,[2],inactive
same,Potency,[3],"inconclusive: 33.2 µM [rising, partial curve, poor fit]"
same,Potency,[6],inactive
same,Potency,[8],inactive
same,Potency,[9],inactive
Cc1cc(Cl)ccc1OCCCC(=O)NO,Potency,[1],active: 14.8 µM
same,Potency,[2],"inconclusive: 16.6 µM [cytotoxic, partial curve]"
same,Potency,[3],"inconclusive: 14.8 µM [cytotoxic, partial curve]"
same,Potency,[9],active: 9.35 µM
same,Potency,[10],"inconclusive: 17.8 µM [cytotoxic, partial curve]"
C[C@@H]1COCCN1c1cc(C2(S(C)(=N)=O)CC2)nc(-c2ccnc3[nH]ccc23)n1 (some centres not stated),Potency,[1],"active: 1.48 µM and inconclusive: 3.26 µM [cytotoxic, full curve]"
same,Potency,[2],active: 2.95 µM
same,Potency,[3],active: 1.17 µM
same,Potency,[4],active: 2.95 µM
same,Potency,[7],active: 4.67 µM
same,Potency,[8],"inconclusive: 1.32 µM [cytotoxic, full curve]"
same,Potency,[5],active: 1.17 µM
same,Potency,[9],"inconclusive: 0.831 µM [cytotoxic, full curve]"
same,Potency,[10],"inconclusive: 17.8 µM [cytotoxic, partial curve]"
Cc1ccc(Nc2cc(-c3cccc(N4C(=O)c5ccccc5C4=O)c3)ncn2)cc1NS(C)(=O)=O,Potency,[1],"inconclusive: 16.6 µM [cytotoxic, partial curve]"
same,Potency,[2],inactive
same,Potency,[3],inactive
same,Potency,[6],"inconclusive: 37.2 µM [cytotoxic, single point]"
same,Potency,[8],"inconclusive: 37.2 µM [cytotoxic, single point]"
same,Potency,[5],inactive
same,Potency,[9],"inconclusive: 37.2 µM [cytotoxic, single point]"
same,Potency,[11],"inconclusive: 35.5 µM [cytotoxic, single point]"
CC(C)(CO)[C@@H](O)C(=O)NCCC(=O)O,Potency,[1],inactive
same,Potency,[2],inactive
same,Potency,[3],inactive
same,Potency,[6],inactive
same,Potency,[5],inactive
same,Potency,[9],inactive
